# Assay results as given in the supplement of paper PMC10037445.
# The full ranking holds about 2,900 compounds; the median of “IRF Lucia reporter activity, fold change vs agonist alone” is about 0.9, and the highest 2% start at about 2.8. Some of the results follow.
# What was measured:
# RAW-Dual [1] = assay: IRF Lucia reporter activity, fold change vs agonist alone; cytotoxicity flag (confluency mask): not cytotoxic; higher = enhanced IRF activity
# Procedure, shortened: (§1)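 RAW-Dual macrophages (50,000 cells/well in DMEM, 384-well plates) received 50 nL of library stock by pin tool, then a PRR agonist 1 h later, and were kept at 37 °C, 5% CO2. After 20 hours, supernatant was read for IRF by QuantiLuc luminescence and for NF-κB by QuantiBlue absorbance at 620 nm. Reporter activity is fold change over agonist-alone wells. Cytotoxic wells had IncuCyte confluency below 70% of agonist controls in both mask sets.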
# RAW-Dual [2] = assay: IRF Lucia reporter activity, fold change vs agonist alone; higher = enhanced IRF activity; details: library stock concentration (final ~1000-fold dilution): 10 mM, agonist: MPLA (TLR4) […]
# Procedure, shortened: as §1
# RAW-Dual [3] = assay: IRF Lucia reporter activity, fold change vs agonist alone; cytotoxicity flag (confluency mask): cytotoxic (confluency <70% of control); higher = enhanced IRF activity
# Procedure, shortened: as §1
# [4] = agonist: 3'3'-cGAMP (STING) 10 ug/mL
# [5] = cytotoxicity flag (confluency mask): not cytotoxic
# [6] = cytotoxicity flag (confluency mask): cytotoxic (confluency <70% of control)
smiles,measurement,setting,value
Cc1cccc(C)c1OCC(C)N.Cl (centres undefined) (library stock concentration (final ~1000-fold dilution): 10 mM),IRF Lucia reporter activity,RAW-Dual [1]; [4],1.09
same,IRF Lucia reporter activity,RAW-Dual [1]; agonist: LPS (TLR4) 0.1 ug/mL,1.09
Cc1cccc(C)c1OCC(C)N.Cl (centres undefined),IRF Lucia reporter activity,RAW-Dual [2]; [5],1.15
O=C(/C=C/c1cccc(S(=O)(=O)Nc2ccccc2)c1)NO (library stock concentration (final ~1000-fold dilution): 10 mM),IRF Lucia reporter activity,RAW-Dual [3]; [4],0.0878
same,IRF Lucia reporter activity,RAW-Dual [3]; agonist: LPS (TLR4) 0.1 ug/mL,0.448
O=C(/C=C/c1cccc(S(=O)(=O)Nc2ccccc2)c1)NO,IRF Lucia reporter activity,RAW-Dual [2]; [6],0.364
CN(C)C(=O)/C(C#N)=C/c1ccc(-c2nc3cnc4[nH]ccc4c3n2C2CCCCC2)o1 (library stock concentration (final ~1000-fold dilution): 10 mM),IRF Lucia reporter activity,RAW-Dual [1]; [4],0.21
same,IRF Lucia reporter activity,RAW-Dual [1]; agonist: LPS (TLR4) 0.1 ug/mL,0.458
CCn1c(=O)c2c(nc(/C=C/c3ccc(OC)c(OC)c3)n2C)n(CC)c1=O (library stock concentration (final ~1000-fold dilution): 10 mM),IRF Lucia reporter activity,RAW-Dual [1]; [4],0.992
same,IRF Lucia reporter activity,RAW-Dual [1]; agonist: LPS (TLR4) 0.1 ug/mL,1.19
CCn1c(=O)c2c(nc(/C=C/c3ccc(OC)c(OC)c3)n2C)n(CC)c1=O,IRF Lucia reporter activity,RAW-Dual [2]; [5],1.04
COc1cc2c(cc1OC)C1CC(OC(=O)C(N)C(C)C)C(CC(C)C)CN1CC2.Cc1ccc(S(=O)(=O)O)cc1.Cc1ccc(S(=O)(=O)O)cc1 (centres undefined) (library stock concentration (final ~1000-fold dilution): 10 mM),IRF Lucia reporter activity,RAW-Dual [1]; [4],0.978
same,IRF Lucia reporter activity,RAW-Dual [1]; agonist: LPS (TLR4) 0.1 ug/mL,1.17
COc1cc(NS(=O)(=O)c2ccc(N)cc2)ncn1,IRF Lucia reporter activity,RAW-Dual [2]; [5],1.06
COc1cc(NS(=O)(=O)c2ccc(N)cc2)ncn1 (library stock concentration (final ~1000-fold dilution): 10 mM),IRF Lucia reporter activity,RAW-Dual [1]; [4],0.998
same,IRF Lucia reporter activity,RAW-Dual [1]; agonist: LPS (TLR4) 0.1 ug/mL,1.13
CC1(F)C(O)C(CO)OC1n1ccc(=O)[nH]c1=O (centres undefined) (library stock concentration (final ~1000-fold dilution): 10 mM),IRF Lucia reporter activity,RAW-Dual [1]; [4],0.947
same,IRF Lucia reporter activity,RAW-Dual [1]; agonist: LPS (TLR4) 0.1 ug/mL,0.777
CC1(F)C(O)C(CO)OC1n1ccc(=O)[nH]c1=O (centres undefined),IRF Lucia reporter activity,RAW-Dual [2]; [5],1.03
CN1CCN2c3ncccc3Cc3ccccc3C2C1 (centres undefined) (library stock concentration (final ~1000-fold dilution): 10 mM),IRF Lucia reporter activity,RAW-Dual [1]; [4],1.17
same,IRF Lucia reporter activity,RAW-Dual [1]; agonist: LPS (TLR4) 0.1 ug/mL,0.744
CN1CCN2c3ncccc3Cc3ccccc3C2C1 (centres undefined),IRF Lucia reporter activity,RAW-Dual [2]; [5],0.931
NS(=O)(=O)c1ccc(NC(=S)N2CCN(C/C=C/c3ccccc3)CC2)cc1 (library stock concentration (final ~1000-fold dilution): 10 mM),IRF Lucia reporter activity,RAW-Dual [1]; [4],1.05
same,IRF Lucia reporter activity,RAW-Dual [1]; agonist: LPS (TLR4) 0.1 ug/mL,1.16
CCOC(=O)C(CCc1ccccc1)NC1CSC(c2cccs2)CN(CC(=O)O)C1=O.Cl (centres undefined),IRF Lucia reporter activity,RAW-Dual [2]; [5],0.888
CCOC(=O)C(CCc1ccccc1)NC1CSC(c2cccs2)CN(CC(=O)O)C1=O.Cl (centres undefined) (library stock concentration (final ~1000-fold dilution): 10 mM),IRF Lucia reporter activity,RAW-Dual [1]; [4],0.998
same,IRF Lucia reporter activity,RAW-Dual [1]; agonist: LPS (TLR4) 0.1 ug/mL,1.07
COc1ccccc1N1CCN(CC(O)COc2cccc3ccccc23)CC1.Cl.Cl (centres undefined),IRF Lucia reporter activity,RAW-Dual [2]; [5],1.08
COc1ccccc1N1CCN(CC(O)COc2cccc3ccccc23)CC1.Cl.Cl (centres undefined) (library stock concentration (final ~1000-fold dilution): 10 mM),IRF Lucia reporter activity,RAW-Dual [1]; [4],0.885
same,IRF Lucia reporter activity,RAW-Dual [1]; agonist: LPS (TLR4) 0.1 ug/mL,1.08
COc1ccc2cc(-c3[nH]c(-c4ccc(S(C)=O)cc4)nc3-c3ccncc3)ccc2c1 (centres undefined) (library stock concentration (final ~1000-fold dilution): 10 mM),IRF Lucia reporter activity,RAW-Dual [1]; [4],0.0441
same,IRF Lucia reporter activity,RAW-Dual [1]; agonist: LPS (TLR4) 0.1 ug/mL,0.466
COc1ccc2cc(-c3[nH]c(-c4ccc(S(C)=O)cc4)nc3-c3ccncc3)ccc2c1 (centres undefined),IRF Lucia reporter activity,RAW-Dual [2]; [5],0.798
Cc1nc(C(=O)NCC(=O)O)c(O)c2ccc(Oc3ccccc3)cc12 (library stock concentration (final ~1000-fold dilution): 10 mM),IRF Lucia reporter activity,RAW-Dual [1]; [4],0.595
same,IRF Lucia reporter activity,RAW-Dual [1]; agonist: LPS (TLR4) 0.1 ug/mL,1.47
Cc1nc(C(=O)NCC(=O)O)c(O)c2ccc(Oc3ccccc3)cc12,IRF Lucia reporter activity,RAW-Dual [2]; [5],1.15
CCOC(=O)C1=C(N)Oc2ccc(Cl)cc2C1C(C#N)C(=O)OCC (centres undefined) (library stock concentration (final ~1000-fold dilution): 10 mM),IRF Lucia reporter activity,RAW-Dual [3]; [4],0.086
same,IRF Lucia reporter activity,RAW-Dual [3]; agonist: LPS (TLR4) 0.1 ug/mL,1.63
COc1nc2ccc(Br)cc2cc1C(c1ccccc1)C(O)(CCN(C)C)c1cccc2ccccc12 (centres undefined) (library stock concentration (final ~1000-fold dilution): 10 mM),IRF Lucia reporter activity,RAW-Dual [1]; [4],0.869
same,IRF Lucia reporter activity,RAW-Dual [1]; agonist: LPS (TLR4) 0.1 ug/mL,0.375
COc1nc2ccc(Br)cc2cc1C(c1ccccc1)C(O)(CCN(C)C)c1cccc2ccccc12 (centres undefined),IRF Lucia reporter activity,RAW-Dual [2]; [5],0.763
COc1cc2c(NC3CCN(C(C)C)CC3)nc(N3CCC(F)(F)CC3)nc2cc1OCCCN1CCCC1,IRF Lucia reporter activity,RAW-Dual [2]; [6],0.652
COc1cc2c(NC3CCN(C(C)C)CC3)nc(N3CCC(F)(F)CC3)nc2cc1OCCCN1CCCC1 (library stock concentration (final ~1000-fold dilution): 10 mM),IRF Lucia reporter activity,RAW-Dual [3]; [4],0.849
same,IRF Lucia reporter activity,RAW-Dual [3]; agonist: LPS (TLR4) 0.1 ug/mL,4.2
